Data taken from the BET-seq Pho4 binding data (Le et al. 2018).
This is one part of the list. The energies were worked out here from pooled read counts, against the library average; single values are noisy.

The sequences below were run against T1, Pho4 (S. cerevisiae) (UniProt P07270) (assay: relative binding free energy (BET-seq); higher = weaker binding). Details: reference: library average.
T1 sequence: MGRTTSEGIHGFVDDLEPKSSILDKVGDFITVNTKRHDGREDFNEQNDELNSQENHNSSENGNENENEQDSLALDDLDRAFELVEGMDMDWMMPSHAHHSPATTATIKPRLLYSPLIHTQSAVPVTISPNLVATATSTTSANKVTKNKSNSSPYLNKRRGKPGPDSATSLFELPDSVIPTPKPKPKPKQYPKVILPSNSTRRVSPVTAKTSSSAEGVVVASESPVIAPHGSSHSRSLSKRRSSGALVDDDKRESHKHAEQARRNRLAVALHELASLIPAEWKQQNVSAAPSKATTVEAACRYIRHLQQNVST

Sequence	relative binding free energy
ATAGGCACGTGCCGTT	-0.628 kJ/mol
AATAGCACGTGTAGTA	-0.669 kJ/mol
AGTTGCACGTGACGGT	0.711 kJ/mol
TGGTCCACGTGGTTAA	-0.753 kJ/mol
GTGGACACGTGCTAGG	-0.544 kJ/mol
ATTGACACGTGGGCTG	-0.711 kJ/mol
AGGTGCACGTGTGGCG	-0.0418 kJ/mol
GTACGCACGTGTGTGC	-0.46 kJ/mol
GTCGCCACGTGTTTGG	0.335 kJ/mol
TTAGGCACGTGTGGAA	-0.669 kJ/mol
TGTTGCACGTGGCAGC	-0.502 kJ/mol
GGTTCCACGTGTGGAT	1.3 kJ/mol
GAGGCCACGTGTATGG	0.0418 kJ/mol
AAAGTCACGTGCGTTG	0.0837 kJ/mol
TACTACACGTGTGTGT	0.669 kJ/mol
ATTATCACGTGATGCT	0.586 kJ/mol
ATAGTCACGTGAGTGG	1.51 kJ/mol
GAGGGCACGTGCTGTA	-0.962 kJ/mol
GTGAGCACGTGTCGTT	0.377 kJ/mol
TAGTGCACGTGTTATG	-0.46 kJ/mol
AGTGTCACGTGGTCTC	-0.0837 kJ/mol
AACTGCACGTGTTGAG	0.251 kJ/mol
ACGTACACGTGGTCGG	0.46 kJ/mol

Sequence	relative binding free energy
ACGGGCACGTGTAATG	0.0837 kJ/mol
AGTCACACGTGTGTGG	0.46 kJ/mol
GTTTACACGTGTCGTA	0.92 kJ/mol
AATTTCACGTGTCGAG	1.51 kJ/mol
TTAGACACGTGAGCGT	0.209 kJ/mol
TGGATCACGTGATAGT	1.92 kJ/mol
TTAGTCACGTGAGGTT	0.962 kJ/mol
TAGCACACGTGGTTGC	1.21 kJ/mol
GGGGTCACGTGGATTA	0.46 kJ/mol
GGCAGCACGTGATAGG	0.544 kJ/mol
TAGAACACGTGTGTTG	-0.418 kJ/mol
AATGTCACGTGTTAAT	0.502 kJ/mol
CAATTCACGTGTGGGA	1.05 kJ/mol
ATATTCACGTGTTAAA	0.795 kJ/mol
AGCATCACGTGTGTGT	0.46 kJ/mol
TGGGGCACGTGGCGTG	-0.418 kJ/mol
CAGCGCACGTGGGGCG	-1.05 kJ/mol
AGCGGCACGTGTGGTT	-0.209 kJ/mol
AGAATCACGTGGGTGG	0 kJ/mol
TTATGCACGTGGGTAC	-1.05 kJ/mol
TTTAACACGTGGGAAG	-0.669 kJ/mol
TGGGGCACGTGACGGC	0.544 kJ/mol
ATTTTCACGTGATTCA	0.795 kJ/mol

Sequence	relative binding free energy
CGAGTCACGTGATGGA	1.17 kJ/mol
TTGTGCACGTGGTGTT	-0.418 kJ/mol
TTTTACACGTGATTGT	1.34 kJ/mol
GGAGTCACGTGGCTGA	0.0837 kJ/mol
GAGAACACGTGGGTAG	-0.502 kJ/mol
TAATTCACGTGAGCGG	1.3 kJ/mol
TTTGTCACGTGTAGAT	0.879 kJ/mol
CGGTTCACGTGTATAT	1.46 kJ/mol
GTCGTCACGTGGATGA	0.502 kJ/mol
GTGGTCACGTGGTAGA	0.669 kJ/mol
TGGATCACGTGTTGAC	0.335 kJ/mol
TGTAACACGTGGGGTA	-0.628 kJ/mol
AGGGGCACGTGTTGCT	-0.46 kJ/mol
AATGTCACGTGAGAGG	1.63 kJ/mol
TGCTTCACGTGTTCGT	1 kJ/mol
GGGGGCACGTGACCTG	-0.0837 kJ/mol
GAGGTCACGTGGGGCT	0.46 kJ/mol
TACGGCACGTGCGTTT	-0.502 kJ/mol
GGTTTCACGTGATAGT	1.8 kJ/mol
ATTGTCACGTGCTGGA	0.335 kJ/mol
GCTATCACGTGTGGGA	0.544 kJ/mol
AGCGTCACGTGGGAAT	0.293 kJ/mol
ATGTACACGTGGTGCG	-0.418 kJ/mol

Sequence	relative binding free energy
TAGATCACGTGTTCTT	0.335 kJ/mol
GAGTCCACGTGTGGTT	0.628 kJ/mol
GGTCTCACGTGGCTTT	1 kJ/mol
GATATCACGTGGTTAT	0.418 kJ/mol
GTTGCCACGTGGTGGC	0 kJ/mol
CGAGGCACGTGGTTGT	-0.167 kJ/mol
TATGTCACGTGCGTTA	0.0418 kJ/mol
GCGAGCACGTGGTGTT	-0.628 kJ/mol
ACTGGCACGTGTGATG	0.335 kJ/mol
CAGGGCACGTGTTAGC	0.46 kJ/mol
ATGTTCACGTGTCGTT	1.26 kJ/mol
TTTCGCACGTGAAATT	1.55 kJ/mol
GCTTGCACGTGGCGGA	-0.167 kJ/mol
AGGTCCACGTGTTTGG	-0.167 kJ/mol
GTTGTCACGTGTTCGC	0.209 kJ/mol
TTATTCACGTGATGGG	1.46 kJ/mol
TGCTGCACGTGGGTGT	-0.377 kJ/mol
TTTGCCACGTGGTTGA	-0.544 kJ/mol
AAGTGCACGTGAGTGG	0.837 kJ/mol
TCATGCACGTGTATTT	0.544 kJ/mol
TGTATCACGTGCAAGG	0.544 kJ/mol
ATAGTCACGTGGTATA	0.0418 kJ/mol
TAGGACACGTGATGTT	0.795 kJ/mol

Sequence	relative binding free energy
TTGCTCACGTGTTATG	0.92 kJ/mol
ATTTTCACGTGCGTTA	0.92 kJ/mol
ATTAACACGTGTGGAA	0.502 kJ/mol
TCGTGCACGTGGAGGA	0.418 kJ/mol
GGAGACACGTGTTATT	-0.335 kJ/mol
AGCGTCACGTGGTGAT	0.209 kJ/mol
ATTGCCACGTGGTGTT	-0.586 kJ/mol
CTGTACACGTGAGTTG	1.21 kJ/mol
TTATGCACGTGAAGCG	1.13 kJ/mol
ATTCTCACGTGGGGGC	0.628 kJ/mol
GTTGTCACGTGCGTTC	0 kJ/mol
AGTTTCACGTGCAGTC	1.8 kJ/mol
TTATTCACGTGTACGA	1.42 kJ/mol
GTTGCCACGTGGGATT	-0.669 kJ/mol
AGTTACACGTGATTTA	0.418 kJ/mol
AGTGTCACGTGCTTGT	0.251 kJ/mol
TGCGTCACGTGTTCTT	0.544 kJ/mol
GGTTGCACGTGTTATG	0.418 kJ/mol
GGGAACACGTGCGAGG	0.0418 kJ/mol
TGTATCACGTGGCAAG	0.335 kJ/mol
TGTGCCACGTGTTTGC	-0.377 kJ/mol
TGGATCACGTGCGAGT	1.13 kJ/mol
ATCGACACGTGCGGGG	-0.251 kJ/mol
